US20250389714A1 (SEOUL NATIONAL UNIVERSITY R AND DB FOUNDATION, published 2025)

Target: T1, tau oligomers of 6xHis tagged human 0N4R tau (size class not specified) (human, UniProt P10636-6 1-383, biotinylated or labelled with DyLight 488/594 NHS ester, depending on the assay; sites not stated)
T1 construct: also called oTau; biotin-tau oligomers; not shown: 6xHis tag from the pET-His vector
Test: cell binding assay: 500 nM biotin-tau oligomers for 2 h on SH-SY5Y cells transfected with RFP or RAGE-RFP, streptavidin-alkaline phosphatase, BCIP/NBT staining

B1: G82S RAGE (RFP-tagged), overexpressed in SH-SY5Y cells (receptor, human)
chain: [about 300 residues left out here]LALGILGGLGTAALLIGVILWQRRQRRGEERKAPENQEEEEERAELNQSEEPEAGESSTGGP
notes: whole, on cells; also called RAGE G82S polymorphism; not shown: RFP tag from vector pRFP-N1
**Q.** Does B1 bind?
**A.** binds
